Experimental findings from ChEMBL document CHEMBL1201862, “PubChem BioAssay data set” (2004) are described below.

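These data come from cells grown in 96-well plates and exposed to compound for 48 hours at five concentrations. GI50 = concentration required for 50% inhibition of growth.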 Calls of active or inactive are those of the source. No stated cut-off is given here; in the data, active = GI50 up to about 1.1 µM and inactive = higher.

This experiment has as its system NCI-H322M. Put plainly: NCI anticancer screen, dose series, 48 h.
Consider `O=c1ncc(F)cn1C1OC(CO)C(O)C1O` (stereo unspecified), for which the GI50 was inactive: > 40.2 µM. For the molecule `COc1ccc2[nH]c3nnc(N)c-3nc2c1`, the GI50 was inactive: 11 µM. `c1ccc(CCN2CCOCC2)nc1`: the GI50 was inactive: > 100 µM.

For the molecule `CCC(C)C(NC(=O)c1cccc2c(=O)c3ccccc3[nH]c12)C(=O)O` (stereo unspecified), the GI50 is inactive: > 100 µM.

On to `Cc1cccc(-n2c(=S)[nH]c3c(sc(=O)n3-c3ccccc3C)c2=O)c1`, for which the GI50 was inactive: > 100 µM. For `COc1cc2c3c4c1OCc1c5c(cc(c1-4)CC3[N+](C)(C)CC2)OCO5` (stereo unspecified) the value was inactive: > 100 µM. In the case of `Cc1ccc(/C=N/Nc2cnccn2)s1`, the GI50 was inactive: > 100 µM. As for `CCN(CC)CSc1nc2ccccc2s1`, the GI50 is inactive: > 100 µM. As to `CC(C)(C)C(O)CC(O)(C(F)(F)F)C(F)(F)F` (stereo unspecified), the GI50 was inactive: > 100 µM.

For `Brc1ccc(CCNCCN2CCCCC2)cc1`, the GI50 was inactive: 14.3 µM. As to `N/C(=N\N=C\c1cc2ccccc2s1)c1cnccn1`, the GI50 is inactive: > 100 µM. For the molecule `COc1ccc(C(c2c[nH]c3ccc(Br)cc23)c2c[nH]c3ccc(Br)cc23)cc1`, the GI50 was active: 0.278 µM.

Regarding `COC(=O)[C@@H]1CS(=O)(=O)C(C(C)C)N1C(C)=O` (stereo partly specified), the GI50 was inactive: > 100 µM. `CC1=C2C(=O)OCC23C=COC3(C)O1` (stereo unspecified): the GI50 was inactive: 44.6 µM. On to `S=C1ON=C(c2ccccc2)/C1=C/Nc1ccccc1`, for which the GI50 was inactive: > 100 µM. As to `CC(C)(C)C1=CC(=CC=C2C=CN(CCCCCCCCCCCO)C=C2)C=C(C(C)(C)C)C1=O`, the GI50 is inactive: 2.64 µM. On to `CC(C)(C)C(=O)C1CC(=O)c2ccccc2C1=O` (stereo unspecified), for which the GI50 was inactive: 20.2 µM. As to `COc1ccc2c3c1OC1C4(CCC5C(C2)N(CC2CC2)CCC351)OCCO4` (stereo unspecified), the GI50 is inactive: > 100 µM.

Regarding `CC(C)c1cccc(C(C)C)c1N1C(=O)C(=O)C(c2nc3ccccc3o2)C(=O)C1=O`, the GI50 is inactive: 75.5 µM. Consider `O=C1c2c(O)ccc(O)c2C(=O)c2c(NCCNC(=O)C(O)C(O)C(O)C(O)CO)ccc(NCCNC(=O)C(O)C(O)C(O)C(O)CO)c21` (stereo unspecified), for which the GI50 is active: 0.114 µM. Turning to `CS(=O)(=O)OCCCSCCSCCCOS(C)(=O)=O`, the GI50 is inactive: > 100 µM.

Consider `CCN1CCN(c2nc3ccc([N+](=O)[O-])cc3nc2C(=O)c2ccccc2)CC1`, for which the GI50 is inactive: 31.4 µM. Consider `CCC1=C(C(C)=O)[C@@H]2CCCCC[C@@H](C(=O)OC)C2C1=O` (stereo partly specified), for which the GI50 was inactive: > 100 µM. As to `COCC(/N=C\N1CCCc2ccccc2[C@@H]1CCCCl)C(C)(C)C` (stereo partly specified), the GI50 is inactive: 4.47 µM. As for `CCOC(=O)c1nc2ccccc2nc1Nc1ccc(F)cc1`, the GI50 is inactive: > 100 µM. Consider `O=C1c2ccccc2-c2c1c(-c1ccc(F)cc1)nc1ccc3ccccc3c21`, for which the GI50 is inactive: > 100 µM. `O=C1CC2C(=O)N(Cc3ccccc3)C1C(S(=O)(=O)c1ccccc1)C2S(=O)(=O)c1ccccc1` (stereo unspecified): the GI50 was inactive: 17.1 µM.

For the molecule `CC1(C)COC(c2ccc(C(F)(F)F)cc2C(O)c2ccc3ccccc3c2)=N1` (stereo unspecified), the GI50 is inactive: > 10 µM. Turning to `CCSC(=O)/C=C1\CN(C(=O)OC(C)(C)C)C1C(=O)OC(C)(C)C` (stereo unspecified), the GI50 is inactive: 9.16 µM. As for `O=[N+]([O-])c1cccc([N+](=O)[O-])c1Cl`, the GI50 is inactive: 20.4 µM. As for `C[Si](C)(C)c1ccc(-c2c3ccc(-c4cc(Br)cc(Br)c4)nc3nc3nc(-c4cc(Br)cc(Br)c4)ccc23)cc1`, the GI50 is inactive: > 100 µM. Turning to `Clc1cc(Cl)cc(/C=N/C23CC4CC(CC(C4)C2)C3)c1`, the GI50 was inactive: > 10 µM. In the case of `CC(C)(C)[Si](C)(C)OCC1OC(n2cnc3c(N)ncnc32)C(O)C1O` (stereo unspecified), the GI50 was inactive: > 100 µM. For `NC(=O)N/N=C1\CC2C3CC4C2C4C13` (stereo unspecified) the value was inactive: > 100 µM. `CC1OC(OC2C(OC(=O)[C@]34CCC(C)(C)C[C@H]3C3=CC[C@@H]5[C@@]6(C)CC[C@H](OC7OC(CO)C(O)C(O)C7OC7OC(CO)C(O)C(O)C7O)C(C)(C)[C@@H]6CC[C@@]5(C)[C@]3(C)CC4)OCC(O)C2O)C(O)C(O)C1OC1OCC(O)C(O)C1O` (stereo partly specified): the GI50 was inactive: 11.4 µM.

Regarding `CC(C)(C)c1cc(C(=O)/C=C/c2ccc3c(c2)CCO3)cc(C(C)(C)C)c1O`, the GI50 is inactive: 1.79 µM. With `CCOC(=O)C(NNS(=O)(=O)c1ccc(C)cc1)S(=O)(=O)C(F)(F)C(F)(F)C(F)(F)C(F)(F)F` (stereo unspecified), the GI50 was inactive: 19.3 µM.

As for `O=C(O)CCN(CCCCN(CCC(=O)O)CCC(=O)O)CCC(=O)O`, the GI50 was inactive: > 100 µM.

Turning to `S=C1C=C(c2ccccc2)Sc2ccccc2N1`, the GI50 is inactive: > 100 µM. For `C[C@]12CCc3nonc3C1CC[C@@H]1C2CC[C@]2(C)C(=O)CCC12` (stereo partly specified) the value was inactive: 52.4 µM; for `CCCCCCCCC#CCCCCCCC(F)C(=O)O` (stereo unspecified), inactive: > 100 µM. For the molecule `COc1ccc(C(=O)/C=C/c2ccc(OCC(=O)N3CCN(c4ccccc4)CC3)cc2)cc1OC`, the GI50 was inactive: 3.7 µM.

Take `Nc1ccc2c(c1)NCCN2`: the GI50 is inactive: 89.9 µM.

`C(=C\c1ccccc1)/COc1ccccc1C(N1CCOCC1)n1nc2ccccc2n1` (stereo unspecified): the GI50 was inactive: 20.2 µM.

`CCC(C)[C@H](NC(=O)N[C@H](C)c1ccccc1)C(=O)OC` (stereo partly specified): the GI50 is inactive: > 100 µM. On to `CC(C)(C)[Si](C)(C)OCC1CCC(n2cnc3c(=O)[nH]cnc32)O1` (stereo unspecified), for which the GI50 is inactive: > 100 µM. In the case of `Cc1ccc(/C=N/n2c(Cc3ccccc3)n[nH]c2=O)cc1`, the GI50 was inactive: > 100 µM. On to `COc1cccc(N[C@@H]2c3cc4c(cc3C(c3cc(OC)c(O)c(OC)c3)[C@H]3C(=O)OCC32)OCO4)c1` (stereo partly specified), for which the GI50 was inactive: 7.66 µM. `Nc1ncnc2c1ncn2C1C(O)C=C(CO)C1O` (stereo unspecified): the GI50 was inactive: > 625 µM. In the case of `NC1C[C@H](n2cc(/C=C/Br)c(=O)[nH]c2=O)C[C@@H]1CO` (stereo partly specified), the GI50 is inactive: > 100 µM. As to `CC(C)(O)[C@@H]1CC[C@@]2(C)CCCC(O)C2(O)C1` (stereo partly specified), the GI50 is inactive: > 100 µM.

Take `Cc1cccc2cc3cccc(C(=O)NCCN(C)C)c3nc12`: the GI50 is active: 0.265 µM. In the case of `CC(C)=CCC[C@](C)(O[C@@H]1O[C@H](CO)[C@@H](O)[C@H](O)[C@H]1O)[C@H]1CC[C@]2(C)[C@@H]1[C@H](O)C[C@@H]1[C@@]3(C)CC[C@@H](O)C(C)(C)[C@@H]3[C@@H](O[C@@H]3O[C@H](CO)[C@@H](O)[C@H](O)[C@H]3O)C[C@]12C.C[C@@H]1O[C@@H](O[C@H]2[C@H](O[C@H]3C[C@]4(C)[C@H](C[C@H](O)[C@@H]5[C@@H]([C@@]6(C)CC[C@H](C(C)(C)O)O6)CC[C@]54C)[C@@]4(C)CC[C@H](O)C(C)(C)[C@H]34)O[C@H](CO)[C@@H](O)[C@@H]2O)[C@H](O)[C@H](O)[C@H]1O` it was inactive: > 100 µM; in that of `CCCCc1ccc(-n2c3nc(=O)n(C)c(=O)c-3nc3ccccc32)cc1`, inactive: 7.18 µM; in that of `O=C(O)CCSc1ncnc2[nH]cnc12`, inactive: > 100 µM. Regarding `C/C(=N\N=C(/S)N1CC2CCC(CC2)C1)c1ccncn1`, the GI50 is active: < 0.01 µM.
